# Assay results from article PMC9911399, “Two distinct binding modes provide the RNA-binding protein RbFox with extraordinary sequence specificity”.
# Numbering of substitutions follows the chain as printed; changes in the protein carry UniProt numbers. The list shows a part of the results.
# T1: RBFOX1 RRM (Homo sapiens, UniProt Q9NWB1 109-208)
# T1 sequence: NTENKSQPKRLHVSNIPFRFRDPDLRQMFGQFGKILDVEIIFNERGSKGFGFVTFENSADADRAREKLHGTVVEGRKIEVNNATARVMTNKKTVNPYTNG
# B1: ACUCAAU (DNA:RNA)
# RNA: GGGAGACCGGAAUUCAGAUUGUCCACUCAAUUUAAAUCCCGUCGUAGCCACCA
# DNA 1: CAATCTGAATTCCGGTCTCCC
# DNA 2: TGGTGGCTACGACGGGATT
# B2: UGAAAUG (DNA:RNA)
# RNA: B1 RNA with A25U, C26G, U27A, C28A, A30U, U31G
# DNA 1: CAATCTGAATTCCGGTCTCCC
# DNA 2: TGGTGGCTACGACGGGATT
# B3: AGUUUGG (DNA:RNA)
# RNA: B1 RNA with C26G, C28U, A29U, A30G, U31G
# DNA 1: CAATCTGAATTCCGGTCTCCC
# DNA 2: TGGTGGCTACGACGGGATT
# B4: AUUGCAU (DNA:RNA)
# RNA: B1 RNA with C26U, C28G, A29C
# DNA 1: CAATCTGAATTCCGGTCTCCC
# DNA 2: TGGTGGCTACGACGGGATT
# B5: CGAGGAC (DNA:RNA)
# RNA: B1 RNA with A25C, C26G, U27A, C28G, A29G, U31C
# DNA 1: CAATCTGAATTCCGGTCTCCC
# DNA 2: TGGTGGCTACGACGGGATT
# B6: ACACGUC (DNA:RNA)
# RNA: B1 RNA with U27A, A29G, A30U, U31C
# DNA 1: CAATCTGAATTCCGGTCTCCC
# DNA 2: TGGTGGCTACGACGGGATT
# B7: GGCAGAC (DNA:RNA)
# RNA: B1 RNA with A25G, C26G, U27C, C28A, A29G, U31C
# DNA 1: CAATCTGAATTCCGGTCTCCC
# DNA 2: TGGTGGCTACGACGGGATT
# B8: CGCGUCG (DNA:RNA)
# RNA: GGGAGACCGGAAUUCAGAUUGUCCCGCGUCGUUAAAUCCCGUCGUAGCCACCA
# DNA 1: CAATCTGAATTCCGGTCTCCC
# DNA 2: TGGTGGCTACGACGGGATT
# B9: AAUGCCG (DNA:RNA)
# RNA: B8 RNA with C25A, G26A, C27U, U29C
# DNA 1: CAATCTGAATTCCGGTCTCCC
# DNA 2: TGGTGGCTACGACGGGATT
# B10: CUCGUCA (DNA:RNA)
# RNA: B8 RNA with G26U, G31A
# DNA 1: CAATCTGAATTCCGGTCTCCC
# DNA 2: TGGTGGCTACGACGGGATT
# B11: AGUCAUC (DNA:RNA)
# RNA: B1 RNA with C26G, A30U, U31C
# DNA 1: CAATCTGAATTCCGGTCTCCC
# DNA 2: TGGTGGCTACGACGGGATT
# B12: GGGACCU (DNA:RNA)
# RNA: B8 RNA with C25G, C27G, G28A, U29C, G31U
# DNA 1: CAATCTGAATTCCGGTCTCCC
# DNA 2: TGGTGGCTACGACGGGATT
# B13: GCUUGCC (DNA:RNA)
# RNA: B1 RNA with A25G, C28U, A29G, A30C, U31C
# DNA 1: CAATCTGAATTCCGGTCTCCC
# DNA 2: TGGTGGCTACGACGGGATT
# B14: CAUCGUG (DNA:RNA)
# RNA: B1 RNA with A25C, C26A, A29G, A30U, U31G
# DNA 1: CAATCTGAATTCCGGTCTCCC
# DNA 2: TGGTGGCTACGACGGGATT
# B15: GCUUAGG (DNA:RNA)
# RNA: B1 RNA with A25G, C28U, A30G, U31G
# DNA 1: CAATCTGAATTCCGGTCTCCC
# DNA 2: TGGTGGCTACGACGGGATT
# B16: CCCAUAU (DNA:RNA)
# RNA: B1 RNA with A25C, U27C, C28A, A29U
# DNA 1: CAATCTGAATTCCGGTCTCCC
# DNA 2: TGGTGGCTACGACGGGATT
# B17: ACCUACG (DNA:RNA)
# RNA: B1 RNA with U27C, C28U, A30C, U31G
# DNA 1: CAATCTGAATTCCGGTCTCCC
# DNA 2: TGGTGGCTACGACGGGATT
# B18: UUAGCGC (DNA:RNA)
# RNA: B8 RNA with C25U, G26U, C27A, U29C, C30G, G31C
# DNA 1: CAATCTGAATTCCGGTCTCCC
# DNA 2: TGGTGGCTACGACGGGATT
# B19: GCGUGUC (DNA:RNA)
# RNA: B1 RNA with A25G, U27G, C28U, A29G, A30U, U31C
# DNA 1: CAATCTGAATTCCGGTCTCCC
# DNA 2: TGGTGGCTACGACGGGATT
# B20: UGUGUCU (DNA:RNA)
# RNA: B8 RNA with C25U, C27U, G31U
# DNA 1: CAATCTGAATTCCGGTCTCCC
# DNA 2: TGGTGGCTACGACGGGATT
# Target: T1, RBFOX1 RRM
# Assay: EMSA; HiTS-Eq, 1 nM pool, 10 min; buffer printed only for the single-RNA assays: 10 mM Tris pH 7.5, 150 mM NaCl, 3.4 mM EDTA, 0.001% NP-40, 30 C
# Settings: tags: His6 N-terminal (pET28a); label: 5' 32P
# Procedure, shortened: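 A pool of RNA with 7 randomized nucleotides, 5′-radiolabelled and with DNA-annealed flanks, was equilibrated at 1 nM for 10 min in 50 µL with purified RbFox RRM, wild type or mutant, across increasing protein concentrations. Free RNA was separated by 8% native PAGE, excised, reverse-transcribed, barcoded by PCR and sequenced. Relative association constants were obtained from read-count changes of each RNA species versus the control reaction and normalised to the cognate motif.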
row,Binder,binding signal
1,B1,0.000275 KA relative to UGCAUGU
2,B2,0.0128 KA relative to UGCAUGU
3,B3,0.0144 KA relative to UGCAUGU
4,B4,0.0144 KA relative to UGCAUGU
5,B5,0.00531 KA relative to UGCAUGU
6,B6,0.00354 KA relative to UGCAUGU
7,B7,0.0184 KA relative to UGCAUGU
8,B8,0.0133 KA relative to UGCAUGU
9,B9,0.00918 KA relative to UGCAUGU
10,B10,0.00671 KA relative to UGCAUGU
11,B11,0.00714 KA relative to UGCAUGU
12,B12,0.0182 KA relative to UGCAUGU
13,B13,0.0307 KA relative to UGCAUGU
14,B14,0.00966 KA relative to UGCAUGU
15,B15,0.00977 KA relative to UGCAUGU
16,B16,0.00248 KA relative to UGCAUGU
17,B17,0.00286 KA relative to UGCAUGU
18,B18,0.0148 KA relative to UGCAUGU
19,B19,0.0266 KA relative to UGCAUGU
20,B20,0.023 KA relative to UGCAUGU
